These results are taken from publication PMC3207854.

Results are given in words; binding and its absence hold for the method and conditions named. Some results given as binding are weak or reduced against the parent protein; the word gives no strength. Where a sequence is shown, tags or fusion partners need not be part of it.

Test [1] concerns the target T1, LexA-Pch2 (S. cerevisiae) (UniProt P38126).
T1 sequence: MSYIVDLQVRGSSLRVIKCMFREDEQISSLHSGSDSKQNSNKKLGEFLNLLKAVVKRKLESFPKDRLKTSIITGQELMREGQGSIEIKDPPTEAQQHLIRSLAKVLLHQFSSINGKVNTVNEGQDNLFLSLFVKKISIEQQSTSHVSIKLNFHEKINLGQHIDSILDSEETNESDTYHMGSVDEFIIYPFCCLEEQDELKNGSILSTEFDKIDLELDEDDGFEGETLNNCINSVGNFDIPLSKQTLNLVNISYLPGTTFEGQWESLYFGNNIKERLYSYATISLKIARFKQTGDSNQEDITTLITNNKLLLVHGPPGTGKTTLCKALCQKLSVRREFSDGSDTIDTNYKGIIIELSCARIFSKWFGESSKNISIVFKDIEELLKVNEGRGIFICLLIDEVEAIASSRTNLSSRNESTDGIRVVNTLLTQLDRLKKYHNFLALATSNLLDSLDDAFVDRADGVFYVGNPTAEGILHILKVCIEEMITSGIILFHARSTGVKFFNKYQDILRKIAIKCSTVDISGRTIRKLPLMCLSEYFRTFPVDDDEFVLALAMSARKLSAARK
As to the kind of experiment: two-hybrid; spot assay in strain L40; LexA DNA binding domain and Gal4 activation domain fusions; growth on SC-Leu-Trp-His plus 1 mM 3-AT, 3-5 days.

Test [2] concerns the target T2, Mre11 (yeast two-hybrid construct) (S. cerevisiae) (UniProt P32829).
T2 sequence: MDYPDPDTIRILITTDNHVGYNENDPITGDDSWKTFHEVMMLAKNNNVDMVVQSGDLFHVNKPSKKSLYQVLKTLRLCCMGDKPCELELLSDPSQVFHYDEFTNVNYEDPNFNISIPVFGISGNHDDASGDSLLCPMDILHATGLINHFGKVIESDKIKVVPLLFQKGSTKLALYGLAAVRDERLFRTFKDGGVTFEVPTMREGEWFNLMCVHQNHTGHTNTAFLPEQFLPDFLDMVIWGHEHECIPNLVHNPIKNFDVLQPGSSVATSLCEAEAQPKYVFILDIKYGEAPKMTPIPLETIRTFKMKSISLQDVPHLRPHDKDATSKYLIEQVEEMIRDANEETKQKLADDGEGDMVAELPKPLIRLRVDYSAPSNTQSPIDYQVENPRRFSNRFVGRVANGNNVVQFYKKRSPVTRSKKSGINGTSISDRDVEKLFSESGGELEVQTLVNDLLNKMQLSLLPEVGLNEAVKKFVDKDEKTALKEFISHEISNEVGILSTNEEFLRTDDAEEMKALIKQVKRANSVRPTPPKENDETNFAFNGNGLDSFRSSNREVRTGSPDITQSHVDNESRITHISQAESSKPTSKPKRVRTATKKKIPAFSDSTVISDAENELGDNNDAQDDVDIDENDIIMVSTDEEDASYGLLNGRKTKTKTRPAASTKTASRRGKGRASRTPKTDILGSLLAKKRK
Described as above.

B1: Xrs2(1–313)-S47A H50A (domain or fragment, UniProt P33301 1-313)
chain: MWVVRYQNTLEDGSISFISCCLQAFKTYSIGRSSKNPLIIKNDKSIARQAITFKWEINNSSDLKHSSLCLVNKGKLTSLNKKFMKVGETFTINASDVLKSTIIELGTTPIRIEFEWINEVWNIPPHLTQFRTMLSEYGISTEISINDIPANLMISDYPKSEDNSIRELYALVSTIPMKKSRFLMELCNTLLPTSKTNLKFDEMWNDMISNPEYNVFDFDPNILLSKFMRLNNIRVLTTIKSEPRLSSLLRTFNINLFAFDNIDSLYKYVDSLEASTEYLILTTTDKKENGKILCTIKTMLTSIIDGTLSAVIN
Consider B1, for which the binding entry in test [1] is given as “binds”.

B2: Xrs2(1–313)-Gal4AD (domain or fragment, UniProt P33301 1-313)
chain: MWVVRYQNTLEDGSISFISCCLQAFKTYSIGRSSKNPLIIKNDKSISRQHITFKWEINNSSDLKHSSLCLVNKGKLTSLNKKFMKVGETFTINASDVLKSTIIELGTTPIRIEFEWINEVWNIPPHLTQFRTMLSEYGISTEISINDIPANLMISDYPKSEDNSIRELYALVSTIPMKKSRFLMELCNTLLPTSKTNLKFDEMWNDMISNPEYNVFDFDPNILLSKFMRLNNIRVLTTIKSEPRLSSLLRTFNINLFAFDNIDSLYKYVDSLEASTEYLILTTTDKKENGKILCTIKTMLTSIIDGTLSAVIN
As to B2, in test [1], the binding result is recorded as “binds”.

B3: Mre11 (yeast two-hybrid construct) (protein, UniProt P32829 1-692)
chain: MDYPDPDTIRILITTDNHVGYNENDPITGDDSWKTFHEVMMLAKNNNVDMVVQSGDLFHVNKPSKKSLYQVLKTLRLCCMGDKPCELELLSDPSQVFHYDEFTNVNYEDPNFNISIPVFGISGNHDDASGDSLLCPMDILHATGLINHFGKVIESDKIKVVPLLFQKGSTKLALYGLAAVRDERLFRTFKDGGVTFEVPTMREGEWFNLMCVHQNHTGHTNTAFLPEQFLPDFLDMVIWGHEHECIPNLVHNPIKNFDVLQPGSSVATSLCEAEAQPKYVFILDIKYGEAPKMTPIPLETIRTFKMKSISLQDVPHLRPHDKDATSKYLIEQVEEMIRDANEETKQKLADDGEGDMVAELPKPLIRLRVDYSAPSNTQSPIDYQVENPRRFSNRFVGRVANGNNVVQFYKKRSPVTRSKKSGINGTSISDRDVEKLFSESGGELEVQTLVNDLLNKMQLSLLPEVGLNEAVKKFVDKDEKTALKEFISHEISNEVGILSTNEEFLRTDDAEEMKALIKQVKRANSVRPTPPKENDETNFAFNGNGLDSFRSSNREVRTGSPDITQSHVDNESRITHISQAESSKPTSKPKRVRTATKKKIPAFSDSTVISDAENELGDNNDAQDDVDIDENDIIMVSTDEEDASYGLLNGRKTKTKTRPAASTKTASRRGKGRASRTPKTDILGSLLAKKRK
B3: the binding entry in test [1] is given as “no binding”.

B4: Xrs2(126–313)-Gal4AD (domain or fragment, UniProt P33301 126-313)
chain: HLTQFRTMLSEYGISTEISINDIPANLMISDYPKSEDNSIRELYALVSTIPMKKSRFLMELCNTLLPTSKTNLKFDEMWNDMISNPEYNVFDFDPNILLSKFMRLNNIRVLTTIKSEPRLSSLLRTFNINLFAFDNIDSLYKYVDSLEASTEYLILTTTDKKENGKILCTIKTMLTSIIDGTLSAVIN
For B4, the binding result in test [1] is listed as “binds”.

B5: Rad50 (yeast two-hybrid construct) (protein, UniProt P12753 1-1312)
chain: MSAIYKLSIQGIRSFDSNDRETIEFGKPLTLIVGMNGSGKTTIIECLKYATTGDLPPNSKGGVFIHDPKITGEKDIRAQVKLAFTSANGLNMIVTRNIQLLMKKTTTTFKTLEGQLVAINNSGDRSTLSTRSLELDAQVPLYLGVPKAILEYVIFCHQEDSLWPLSEPSNLKKKFDEIFQAMKFTKALDNLKSIKKDMSVDIKLLKQSVEHLKLDKDRSKAMKLNIHQLQTKIDQYNEEVSEIESQLNEITEKSDKLFKSNQDFQKILSKVENLKNTKLSISDQVKRLSNSIDILDLSKPDLQNLLANFSKVLMDKNNQLRDLETDISSLKDRQSSLQSLSNSLIRRQGELEAGKETYEKNRNHLSSLKEAFQHKFQGLSNIENSDMAQVNHEMSQFKAFISQDLTDTIDQFAKDIQLKETNLSDLIKSITVDSQNLEYNKKDRSKLIHDSEELAEKLKSFKSLSTQDSLNHELENLKTYKEKLQSWESENIIPKLNQKIEEKNNEMIILENQIEKFQDRIMKTNQQADLYAKLGLIKKSINTKLDELQKITEKLQNDSRIRQVFPLTQEFQRADLEMDFQKLFINMQKNIAINNKKMHELDRRYTNALYNLNTIEKDLQDNQKSKEKVIQLLSENLPEDCTIDEYNDVLEETELSYKTALENLKMHQTTLEFNRKALEIAERDSCCYLCSRKFENESFKSKLLQELKTKTDANFEKTLKDTVQNEKEYLHSLRLLEKHIITLNSINEKIDNSQKCLEKAKEETKTSKSKLDELEVDSTKLKDEKELAESEIRPLIEKFTYLEKELKDLENSSKTISEELSIYNTSEDGIQTVDELRDQQRKMNDSLRELRKTISDLQMEKDEKVRENSRMINLIKEKELTVSEIESSLTQKQNIDDSIRSKRENINDIDSRVKELEARIISLKNKKDEAQSVLDKVKNERDIQVRNKQKTVADINRLIDRFQTIYNEVVDFEAKGFDELQTTIKELELNKAQMLELKEQLDLKSNEVNEEKRKLADSNNEEKNLKQNLELIELKSQLQHIESEISRLDVQNAEAERDKYQEESLRLRTRFEKLSSENAGKLGEMKQLQNQIDSLTHQLRTDYKDIEKNYHKEWVELQTRSFVTDDIDVYSKALDSAIMKYHGLKMQDINRIIDELWKRTYSGTDIDTIKIRSDEVSSTVKGKSYNYRVVMYKQDVELDMRGRCSAGQKVLASIIIRLALSETFGANCGVIALDEPTTNLDEENIESLAKSLHNIINMRRHQKNFQLIVITHDEKFLGHMNAAAFTDHFFKVKRDDRQKSQIEWVDINRVTY
Consider B5, for which the binding result in test [1] is “no binding”; in test [2], “binds”.

B6: Xrs2 (full-length, Gal4AD fusion in pACT2-2) (protein, UniProt P33301 1-854)
chain: MWVVRYQNTLEDGSISFISCCLQAFKTYSIGRSSKNPLIIKNDKSISRQHITFKWEINNSSDLKHSSLCLVNKGKLTSLNKKFMKVGETFTINASDVLKSTIIELGTTPIRIEFEWINEVWNIPPHLTQFRTMLSEYGISTEISINDIPANLMISDYPKSEDNSIRELYALVSTIPMKKSRFLMELCNTLLPTSKTNLKFDEMWNDMISNPEYNVFDFDPNILLSKFMRLNNIRVLTTIKSEPRLSSLLRTFNINLFAFDNIDSLYKYVDSLEASTEYLILTTTDKKENGKILCTIKTMLTSIIDGTLSAVINMKGASSRTLDNGKFDQISEGMSTILKTSRAPEVEASPVVSKKRKLNRRRVLPLDSLDFFAGGLSTKTLSENRSLTDAKRLNCGAESKTVISSPNIAEADEKHAPFLQNALKPTEDIGKKSGHSSPGAIIVSSPNLGTVNTSEDSLDKSLQSHKLPQPSLPEVAGIGSQTISSNSADYETAAVNSMDDAEVTKNFRVNHHQNIEQPSKNIRKLSNYSREISSPLQENCKSPVKELSIKEKSGTPHAFVEAIQETKNREVKRVKSTIVELKDEELSEEAINQLKNLAIVEPSNNLLRKSFDSEGNKTSRTTEKWENSLMEPEWHKRKNFKTFVKVRPKSKAHKEEGKNNTQSSDFIRNAAFLITRNYVPLKKYSKKDTTTKWGTEENEDMFALTEMERFGSNTFMSDNINSNTIQKRSQALNRFTNEDSSNEGEEDSFSFSRCSGTAASVQPLKNKIFITDEDDLGDIDDKSDRLNHRENNRNLFVVKEMNLRPNLSEECSKQSRHSRSATSRSRGSFGASNNGDGDDDDDDGPKFTFKRRKG
Take B6: the binding result in test [1] and in test [2] was “binds” in each case.
